By IC50 is meant the dose at which the fit gives 50% viability; a fit beyond the top or the lowest dose is shown as a bound at that dose. AUC sums up the same curve from the lowest dose to the 256-fold higher top dose; the more sensitive the line, the further below 1. An inferred top dose comes from the curve model; the source does not state it.

Compound in the assay: CCOc1cc2ncc(C#N)c(Nc3ccc(F)c(Cl)c3)c2cc1NC(=O)/C=C/CN(C)C [EKB-569]
As to the kind of experiment: Viability of human cancer cell lines after 72 h of drug (GDSC screen). The following applies: top dose inferred. The procedure: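 Human cancer cell lines in 384-well plates, medium with 10% serum, drug for 72 h over a 256-fold dose range (nine 2-fold or five 4-fold steps up to the top dose). Adherent lines were fixed and stained with the nucleic acid dye Syto60, suspension lines read with resazurin; signal relative to control wells, capped at 0 and 100%. One two-parameter sigmoid per drug and line, fitted in a mixed model over all curves with the slope shared within a line.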
On to “OCI-AML2 (acute myeloid leukaemia, suspension, top dose 2.5 µM)”, for which the AUC worked out at 0.986 and the IC50 (usually the concentration that inhibits the measured activity by half) is greater than 2.5 µM.

As to “ES7 (Ewing sarcoma, adherent, top dose 2.5 µM)”, the AUC was 0.629 and the IC50 was found to be 0.358 µM.

For “Mo-T (hairy cell leukaemia, suspension, top dose 2.5 µM)”, the AUC was 0.78 and the half-maximal inhibitory concentration (IC50) came out at 1.05 µM.

For “OVCA433 (ovary, adherent, top dose 2.5 µM)”, the AUC is 0.968 and the IC50 is greater than 2.5 µM.

In the case of “A204 (rhabdomyosarcoma, adherent, top dose 2.5 µM)”, the AUC worked out at 0.884 and the IC50 is greater than 2.5 µM.

In the case of “NCI-H2228 (lung adenocarcinoma, adherent, top dose 2.5 µM)”, the AUC amounted to 0.92 and the IC50 is greater than 2.5 µM.

On to “VCaP (prostate, adherent, top dose 2.5 µM)”, for which the AUC turned out to be 0.956 and the IC50 was greater than 2.5 µM.

For “DEL (lymphoid neoplasm, suspension, top dose 2.5 µM)”, the AUC was determined as 0.831 and the IC50 worked out at 1.15 µM.

Turning to “OE21 (oesophagus, adherent, top dose 2.5 µM)”, the AUC stood at 0.959 and the half-inhibitory concentration (IC50) is greater than 2.5 µM.

On to “VA-ES-BJ (soft tissue, adherent, top dose 2.5 µM)”, for which the AUC stood at 0.984 and the IC50 is greater than 2.5 µM.

Take “HO-1-u-1 (head and neck, adherent, top dose 2.5 µM)”: the AUC was 0.96 and the IC50 is greater than 2.5 µM.

With “NCI-H1155 (large cell lung carcinoma, suspension, top dose 2.5 µM)”, the AUC amounted to 0.981 and the IC50 is greater than 2.5 µM.

Regarding “SK-MEL-28 (melanoma, adherent, top dose 2.5 µM)”, the AUC came to 0.986 and the IC50 was greater than 2.5 µM.

Regarding “PL-21 (acute myeloid leukaemia, suspension, top dose 2.5 µM)”, the AUC was found to be 0.755 and the IC50 is 0.974 µM.

As to “A2058 (melanoma, adherent, top dose 2.5 µM)”, the AUC came to 0.961 and the IC50 was greater than 2.5 µM.

In the case of “KYSE-50 (oesophagus, adherent, top dose 2.5 µM)”, the AUC came out at 0.922 and the IC50 is greater than 2.5 µM.

On to “HDLM-2 (Hodgkin lymphoma, suspension, top dose 2.5 µM)”, for which the AUC came to 0.987 and the half-inhibitory concentration (IC50) was greater than 2.5 µM.

“NKM-1 (acute myeloid leukaemia, suspension, top dose 2.5 µM)”: the AUC was 0.698 and the concentration for half-maximal inhibition (IC50) was 0.572 µM.

Take “U-698-M (B-cell leukaemia, suspension, top dose 2.5 µM)”: the AUC came out at 0.955 and the half-maximal inhibitory concentration (IC50) is greater than 2.5 µM.

Take “KMRC-1 (kidney, adherent, top dose 2.5 µM)”: the AUC was found to be 0.977 and the IC50 is greater than 2.5 µM.

As for “EW-18 (Ewing sarcoma, suspension, top dose 2.5 µM)”, the AUC was determined as 0.827 and the IC50 is 1.66 µM.

On to “HCC70 (breast, adherent, top dose 2.5 µM)”, for which the AUC stood at 0.976 and the IC50 is greater than 2.5 µM.

As to “NCI-H1836 (small cell lung carcinoma, suspension, top dose 2.5 µM)”, the AUC stood at 0.985 and the half-inhibitory concentration (IC50) is greater than 2.5 µM.

In the case of “NCI-H441 (lung adenocarcinoma, adherent, top dose 2.5 µM)”, the AUC worked out at 0.962 and the IC50 was greater than 2.5 µM.

Take “U031 (kidney, adherent, top dose 2.5 µM)”: the AUC turned out to be 0.903 and the IC50 is greater than 2.5 µM.

Take “COLO-679 (melanoma, adherent, top dose 2.5 µM)”: the AUC came out at 0.942 and the IC50 was greater than 2.5 µM.

As for “SF268 (glioma, adherent, top dose 2.5 µM)”, the AUC turned out to be 0.946 and the IC50 was greater than 2.5 µM.

Turning to “SW156 (kidney, adherent, top dose 2.5 µM)”, the AUC came out at 0.898 and the IC50 was greater than 2.5 µM.

Take “RF-48 (stomach, adherent, top dose 2.5 µM)”: the AUC was 0.903 and the IC50 is greater than 2.5 µM.

“CW-2 (large intestine, adherent, top dose 20 µM)”: the AUC is 0.706 and the IC50 turned out to be 4.99 µM.

As to “Hs940-T (melanoma, adherent, top dose 2.5 µM)”, the AUC is 0.892 and the IC50 is greater than 2.5 µM.

Consider “NB13 (neuroblastoma, adherent, top dose 2.5 µM)”, for which the AUC amounted to 0.98 and the IC50 was greater than 2.5 µM.

With “MC116 (B-cell lymphoma, suspension, top dose 2.5 µM)”, the AUC worked out at 0.989 and the IC50 is greater than 2.5 µM.

Take “RCC-MF (kidney, adherent, top dose 2.5 µM)”: the AUC is 0.772 and the IC50 came to 1.26 µM.

Regarding “HOP-62 (lung adenocarcinoma, adherent, top dose 2.5 µM)”, the AUC was 0.908 and the IC50 is greater than 2.5 µM.

As for “SR (lymphoid neoplasm, suspension, top dose 2.5 µM)”, the AUC is 0.584 and the IC50 turned out to be 0.258 µM.

Regarding “HCC1187 (breast, suspension, top dose 2.5 µM)”, the AUC came out at 0.883 and the IC50 is 2.46 µM.

On to “SW1783 (glioma, adherent, top dose 2.5 µM)”, for which the AUC was 0.97 and the IC50 was greater than 2.5 µM.

As to “GB-1 (glioma, adherent, top dose 2.5 µM)”, the AUC turned out to be 0.937 and the IC50 was greater than 2.5 µM.

For “Hs939-T (melanoma, adherent, top dose 2.5 µM)”, the AUC worked out at 0.986 and the IC50 was greater than 2.5 µM.

Take “OVCAR-5 (ovary, adherent, top dose 2.5 µM)”: the AUC is 0.868 and the IC50 was greater than 2.5 µM.

As to “OVCAR-4 (ovary, adherent, top dose 2.5 µM)”, the AUC came to 0.824 and the IC50 was greater than 2.5 µM.

“SCH (stomach, adherent, top dose 2.5 µM)”: the AUC is 0.983 and the IC50 was greater than 2.5 µM.

Take “NB10 (neuroblastoma, adherent, top dose 2.5 µM)”: the AUC came out at 0.974 and the IC50 was greater than 2.5 µM.

As for “D-247MG (glioma, adherent, top dose 2.5 µM)”, the AUC was 0.978 and the IC50 was greater than 2.5 µM.

As for “CHSA8926 (chondrosarcoma, adherent, top dose 2.5 µM)”, the AUC is 0.966 and the IC50 was greater than 2.5 µM.

For “RS4-11 (leukaemia, suspension, top dose 2.5 µM)”, the AUC came to 0.62 and the IC50 is 0.324 µM.

With “SKN-3 (head and neck, adherent, top dose 2.5 µM)”, the AUC worked out at 0.96 and the IC50 is greater than 2.5 µM.

Regarding “NB(TU)1-10 (neuroblastoma, adherent, top dose 2.5 µM)”, the AUC amounted to 0.987 and the IC50 is greater than 2.5 µM.

Consider “ES1 (Ewing sarcoma, adherent, top dose 2.5 µM)”, for which the AUC came to 0.98 and the IC50 is greater than 2.5 µM.

In the case of “H2373 (mesothelioma, adherent, top dose 2.5 µM)”, the AUC is 0.982 and the IC50 was greater than 2.5 µM.

“OCI-AML3 (acute myeloid leukaemia, suspension, top dose 2.5 µM)”: the AUC came out at 0.743 and the IC50 is 0.686 µM.

For the cell line “ESS-1 (endometrium, adherent, top dose 2.5 µM)”, the AUC was determined as 0.968 and the IC50 is greater than 2.5 µM.

Consider “NCI-H2452 (mesothelioma, adherent, top dose 2.5 µM)”, for which the AUC was found to be 0.984 and the IC50 was greater than 2.5 µM.

“HDQ-P1 (breast, adherent, top dose 2.5 µM)”: the AUC is 0.952 and the IC50 is greater than 2.5 µM.

For the cell line “GCT (soft tissue, adherent, top dose 2.5 µM)”, the AUC stood at 0.989 and the IC50 is greater than 2.5 µM.

For “SW962 (urogenital system, adherent, top dose 2.5 µM)”, the AUC was found to be 0.957 and the IC50 was greater than 2.5 µM.

On to “QGP-1 (pancreas, adherent, top dose 2.5 µM)”, for which the AUC was 0.941 and the IC50 is greater than 2.5 µM.

With “KNS-81-FD (glioma, adherent, top dose 2.5 µM)”, the AUC was determined as 0.963 and the IC50 is greater than 2.5 µM.

“MC-IXC (neuroblastoma, adherent, top dose 2.5 µM)”: the AUC came out at 0.982 and the IC50 is greater than 2.5 µM.

As to “KP-2 (pancreas, adherent, top dose 2.5 µM)”, the AUC was 0.896 and the IC50 is greater than 2.5 µM.

In the case of “SW900 (lung squamous cell carcinoma, adherent, top dose 2.5 µM)”, the AUC amounted to 0.949 and the IC50 is greater than 2.5 µM.

In the case of “D-283MED (medulloblastoma, adherent, top dose 2.5 µM)”, the AUC was 0.989 and the IC50 is greater than 2.5 µM.

As for “TE-441-T (rhabdomyosarcoma, adherent, top dose 2.5 µM)”, the AUC worked out at 0.97 and the concentration for half-maximal inhibition (IC50) was greater than 2.5 µM.

In the case of “SHP-77 (small cell lung carcinoma, semi-adherent, top dose 2.5 µM)”, the AUC turned out to be 0.873 and the 50% inhibitory concentration (IC50) is 1.96 µM.

On to “JAR (urogenital system, adherent, top dose 2.5 µM)”, for which the AUC came out at 0.774 and the half-maximal inhibitory concentration (IC50) amounted to 0.964 µM.

These data come from the supplement of paper PMC4967469.
